The labels stand for the following.
B1: CPEB3 Ribozyme (parent)
chain: UAACAGGGGGCCACAGCAGAAGCGUUCACGUCGCAGCCCCUGUCAGAUUCUGGUGAAUCUGCGAAUUCUGCUGUAUAUCUC

The source gives no read counts; variants with many changes may rest on few reads.

In the data set the parent is B1. Description: self-cleavage, relative activity (ratio to wild type); higher = more cleavage; in vitro, sequencing. The procedure, abridged: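 Libraries of CPEB3 self-cleaving ribozyme mutants came from rounds of error-prone PCR and carried barcodes, which DNA sequencing matched to variants. In vitro transcription used T7 RNA polymerase at 37°C for 5 hours, with a further 15 min in DNase I before EDTA stopped the reaction; the ribozymes cleaved during both steps. The RNA was reverse transcribed with template switching and sequenced on Illumina. Relative activity is the cleaved/total read fraction of a variant divided by that of the unmutated ribozyme, averaged over three batches with at least 5 reads.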
For the variant UAACAGGGGGCCACUGCUGAAGCGUUCACGUCGCAGCCUCUGUCAGAUUCGGGUGAACCUGCGAAUUCUGCUGUAUAUCUC [A15U A18U C39U U51G U58C], the self-cleavage is 0.17.

For the variant UAACAGGGGGCCACGGCAGAAGCGUUCACGUCGCAGCCCCUGUCAGAUUCUGGCGAAUCUGCGAAUCCUGCCGUAUAUCUC [A15G U54C U67C U72C], the self-cleavage stood at 0.25.

UAACAGGGGGCCACUGCGGGAGCGUUCACGUCGCAGCCCAUGUCAGAUUCUGGUGAAUCUGCGAAUUCUGCUGUAUAUCUC [A15U A18G A20G C40A]: the self-cleavage amounted to 0.11.

Regarding UAACAGGGGGCCACUGCUGAAGCGUUCACGACGCGGCCCCUGUCAGAUUCUGGUGAAUCUGCGAAUUCUGCUGUAUACCUC [A15U A18U U31A A35G U78C], the self-cleavage came out at 0.28.

For UAACAGGGGGCCACGGCAGAAGCGUUCACGUCGCAGCCCCUGUCAGAUUCAGGUGAAUCUGCGAAUUCAGCUGUAUAUCUC [A15G U51A U69A], the self-cleavage was 0.29.

With UAACAGGGGGCCACGGCAGAAGCGUUCACGUCGCAGCCCCUGUCAGAUUCUGGUGAAUCUGCGAAUUCUGCCGUGUAUCUC [A15G U72C A75G], the self-cleavage is 1.21.

In the case of UAACAGGGGGCCACGGCAGAAGCGUUCACGUCGCAGCCCCUGUCAGAUCCUGGUGAAUCUGCGAAUCCUGCUGUAUAUCUC [A15G U49C U67C], the self-cleavage stood at 0.13.

In the case of UAACAGGGGGCCACUGCGGAAGCGUUCACGCUGCAGCCCCUGUCAGAUUCCGGUGAAUCUGCGAAUCCUGCUGAAUAUCUC [A15U A18G U31C C32U U51C U67C U74A], the self-cleavage came to 0.06.

With UAACAGGGGGCCACUGCUGAAGAGUUCACGUCGCAGCCCCUGUCAGAUUCUGGUGAGUCUGCGAAUUCUGCUGUAUAUCUC [A15U A18U C23A A57G], the self-cleavage was 0.18.

Regarding UAACAGGGGGCCACGGCAGAAGCGUUCACGUCGCAGCCCCUGUCAGAUUCUGGUGAAUCCGCGAAUUCUGCUGUUUAUCUC [A15G U60C A75U], the self-cleavage is 0.24.

Consider UAACAGGGGGCCACUGCAGGAGCGUACACGUCGCAGCCCCUGUCAGAUUCUGGUGAAUCCGCGAAUUCCGCUGUAUAUCUC [A15U A20G U26A U60C U69C], for which the self-cleavage stood at 0.08.

With UAACAGGGGGCCACGGCAGAAGCGUUCACGUCGCAGCCCCUGUCAGAUUCUGGUGAAACUGCGAAUUCUGCUGCAUAUCUC [A15G U58A U74C], the self-cleavage is 0.29.

With UAACAGGGGGCCACUGCUGAAGCGUACACGCCGCUACCCCUGUCAUAUUCUGGUGAAUCUGCGAAUUCUGCUGUAUAUCUC [A15U A18U U26A U31C A35U G36A G46U], the self-cleavage is 0.12.

UAACAGGGGGCCACUGCAGGAGCGUUCUCGUCGCAGCCCCUGUCAGAUUCUGGUGAAUCUGCGAAUUCUGUUGUAUAUCUC [A15U A20G A28U C71U]: the self-cleavage worked out at 0.16.

For UAACAGGGGGCCACUGCAGGAGCGUUCGCGUCGCAGCCCCUGUCAGAUUCUGGCGAAUCUGCGAAUUCUGCAGUAUAUCUC [A15U A20G A28G U54C U72A], the self-cleavage is 0.14.

UAACAGGGGGCCACGGCAGAAGCGUUCACGUCGCAGCCCCUGUCAGAUUCCGGUGAAUCUGCGGAUUCUGCUGUAUAUCUC [A15G U51C A64G]: the self-cleavage stood at 0.33.

Regarding UAACAGGGGGCCACGGCAGAAGCGUUCACGUCGCAGCCCCUGUCAGAUUCAGGCGAAUCUGCGGAUUCUGCUGUAUAUCUC [A15G U51A U54C A64G], the self-cleavage turned out to be 0.93.

With UAACAGGGGGCCACGGCAGAAGCGUUCACGUCGCAGCCCCUGUCAGAUUCCGGUGAGUCUGCGAACUCUGCGGUAUAUCUC [A15G U51C A57G U66C U72G], the self-cleavage was 0.18.

For UAACAGGGGGCCACGGCAGAAGCGUUCACGUCGCAGCCCCUGUCAGAUUCUGGCGGAUCUGCGAGUUCUGCUGUAUAUCUC [A15G U54C A56G A65G], the self-cleavage was 0.2.

On to UAACAGGGGGCCACUGCGGAAGCGUUCCCGACGCAGCCCCUGCCAGAUUCUGGUGUAUCUGCGAAUUCUGCUGUAUACCUC [A15U A18G A28C U31A U43C A56U U78C], for which the self-cleavage came out at 0.14.

With UAACAGGGGGCCACUGCGGAAGCGUCCACGCCGCUGCCCCUGUCAGAUUCUGCUGAAUCUGCGAAUUCUGCUGUAUAUCUC [A15U A18G U26C U31C A35U G53C], the self-cleavage was found to be 0.06.

Consider UAACAGGGGGCCACGGCAGAAGCGUUCACGUCGCAGCCCCUGCCAGAUUCUGGUGAAUCUGCGAAUCCUGCUGAACAUCUC [A15G U43C U67C U74A U76C], for which the self-cleavage was 0.11.

Take UAACAGGGGGCCACUGCGGAAGCGUUCACGUCGCAGCCCCUGUCAGUUUCUGGUGAAUCUGCGAAUUCUGCUGUAUAUCUC [A15U A18G A47U]: the self-cleavage was 0.1.

As for UAACAGGGGGCCACUGCUGAAGCGUUCACGUCGCAGCCCCUGUCAGAUUCUGGGGAAUCUGCGAAUUCUGCUGUAAAUCUC [A15U A18U U54G U76A], the self-cleavage was 0.05.

UAACAGGGGGCCACGGCAGAAGCGUUCACGUCGCAGCCCCUGUCAGAUUCUGGUGAAUCUGCGAAUUCUGCAGUAUAUCCC [A15G U72A U80C]: the self-cleavage is 0.61.

Turning to UAACAGGGGGCCACGGCAGAAGCGUUCACGUCGCAGCCCCUGUCAGAUUCAGGUGAAUCUGCGAAUUCUGCCGUAUAUCUC [A15G U51A U72C], the self-cleavage stood at 1.19.

For UAACAGGGGGCCACGGCAGAAGCGUUCACGUCGCAGCCCCUGUCAGAUUCUGGUGAAUCCGCGAAUUCAGCUGUAUAUCUC [A15G U60C U69A], the self-cleavage was found to be 0.26.

On to UAACAGGGGGCCACUGCAGGAGCGUUCACGUCGCGGCCCCUGUCAGAUUCUGGUGAAUCUGCGAAUUCCGCUGUAUAUCUC [A15U A20G A35G U69C], for which the self-cleavage amounted to 0.94.

For the variant UAACAGGGGGCCACUGCUGAAGCGUCCACGUCGCAGCCCCUGUCCGAUUCUGGUGAAUCUGCGAAUUCUGCUGUAUAUCUC [A15U A18U U26C A45C], the self-cleavage stood at 0.36.

In the case of UAACAGGGGGCCACUGCAGGAGCGUUCGCGUCGCAGCCCCAGUCAGAUUCUGGUGAAUCUGCGAAUUCUGCUGUAUAUCUC [A15U A20G A28G U41A], the self-cleavage was found to be 0.18.

Take UAACAGGGGGCCACUGCGGAAGCGUUCACGUCGUGGCCCCUGUCAGAUUCUGGUGAAUCUGAGAAUUCUGCUGUAUAUCUC [A15U A18G C34U A35G C62A]: the self-cleavage came to 0.05.

As to UAACAGGGGGCCACGGCAGAAGCGUUCACGUCGCAGCCCCUGUCAGAUCCUGGUGAAUCUGCGAAUUCUACUGUAUAUCUC [A15G U49C G70A], the self-cleavage amounted to 0.21.

Consider UAACAGGGGGCCACUGCGGAAGCGUCCACGUCGCAGCCCCUGUCAGAUUCUGGCGAAUCUGCGUAUUCCGCUGUAUAUCUC [A15U A18G U26C U54C A64U U69C], for which the self-cleavage came out at 0.71.

On to UAACAGGGGGCCACUGCGGAAGCGUUCACGUCGCAGCCCCUGUCAGAUUCUGGUGAGUCAGCGAAUUCUGCUGUAUACCUC [A15U A18G A57G U60A U78C], for which the self-cleavage worked out at 0.17.

These data come from the RNAGym collection of RNA variant scans (doi:10.1093/nar/gkz1192).
